# In the RNAGym collection of RNA variant scans (doi:10.1093/nar/gkz1192):
# Read counts are not given, so values of variants with three or more changes are uncertain.
# B1: CPEB3 Ribozyme (parent)
# chain: UAACAGGGGGCCACAGCAGAAGCGUUCACGUCGCAGCCCCUGUCAGAUUCUGGUGAAUCUGCGAAUUCUGCUGUAUAUCUC
# Variants of: B1
# Assay: self-cleavage, relative activity (ratio to wild type); higher = more cleavage; in vitro, sequencing
# Summary of the method: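 After error-prone PCR and barcoding, CPEB3 ribozyme mutant libraries were transcribed with T7 RNA polymerase at 37°C for 5 hours, then given 15 min with DNase I before an EDTA stop, and they cleaved during both steps. Reverse transcription with template switching preceded Illumina sequencing. Relative activity divides a variant's cleaved/total read fraction by the unmutated ribozyme's. At least 5 reads were required per variant, and three batches were averaged.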
row,Variant,self-cleavage
1,UAACAGGGUGCCACAGCAGAUGCGUUCACGUCGCAGCUCCUGUCAGAUUCUGGCGAAUCUGCGAAUUCUGCUAUAUAUCCC [G9U A21U C38U U54C G73A U80C],0.22
2,UAACAGGGUGCCACAGCAGAGGUGUUCACGUCGCAGCCCCUGUCAGGAUCUGGUGAAUCCGCGAAUUCUGCUGUAUAUCUC [G9U A21G C23U A47G U48A U60C],0.06
3,UAACAGGGUGCCACAGCAGAAGCGUUCACAUCGCAGCCCCUGUCAGAUUCUGGUGAAUCUGCGGAUUCUGCUGUAUAUCUC [G9U G30A A64G],0.05
4,UAACAGGGUGCCACAGCAGAAGCGUUCUCGUCGCAGCCCCUGUCAGAUCCUGGUGAAUCUGCGAAUUCUGCUGUAUAUCUC [G9U A28U U49C],0.12
5,UAACAGGGUGCCACAGUAGAAGCGUUCACGCCGCAGCCCCUGUCAGACUCAGGUGAAUCUGCGAAUUCUGCUGUAUAUCUC [G9U C17U U31C U48C U51A],0.03
6,UAACAGGGUGCCACAGCAGAAGCGUUCACGUCGCGGCCCCUGUCGGAUUCUGGUGAAUCUGCGAAUUCUGCUGAAUAUCUC [G9U A35G A45G U74A],0.17
7,UAACAGGGUGCCACAGCAGAGGCGUUCACGUCGCAGCCCCUGUCAGGUUCUGAUGAAUCCGCGAAUUCUGCUGUAUAUCUC [G9U A21G A47G G53A U60C],0.05
8,UAACAGGGUGCCACAGCAGAAGCGUUCGCGUCGCAGCCCCUGUCGGAUUCUGGUGAAUCUGCGAAUUCAGCUGUAUAUCUC [G9U A28G A45G U69A],0.06
9,UAACAGGGUGCCACAGCAGAAGCGUUCACGUCGCAGCCCCUGUCAGAUUCUGCUGAAUCUGCGAAAUCUGCUGUAUAUCGC [G9U G53C U66A U80G],0.12
10,UAACAGGGUGCCACAGCAGAAGCGUUCACGUCGCAGCCCCUGUCAGAUUCUGGUGAAUCUGCGGUUUCUGCUGUUUAUCUC [G9U A64G A65U A75U],0.05
11,UAACAGGGUGCCACAGCAGAAGUGUUCUCGUCGCAGCCCCUGUCAGAAUCUGGUGAAUCUGCGAAUUCUGCUGUAUACCUC [G9U C23U A28U U48A U78C],0.12
12,UAACAGGGUGCCACAGCAGAAGCGUUCACGUCGUAGCCCCUGUCUGAUUCUGGUGAAUCUGCGAAUUCUGCUGUAUAUCUC [G9U C34U A45U],0.11
13,UAACAGGGUGCCACAGCAGAAGCGUUCACGUCGCAGCCCCUGUCGGAUUCUGGUGAAUCUGCGAAUUCAGCUGUAUAUCUC [G9U A45G U69A],0.09
14,UAACAGGGUGCCACAGCAGAAGCGUUCACGUCGCAGCCCCUGUCAGAUUCUGGUGAGUCUGCGAAUUCGGCUGUAUAUCUC [G9U A57G U69G],0.12
15,UAACAGGGUGCAACAGCAGAAGCGUCCACGUCGCAGCCCAUGUCAGAUUCUGGUGAAUCUGCGAAUUCUGCUGUAUAUCUC [G9U C12A U26C C40A],0.05
16,UAACAGGGUGCCACAACAGAAGCGUUCGCGUCGCAGCCCCUGUCAGAUUCUGGUGAAUCUGCGAAUUCUGCCGUAUACCUC [G9U G16A A28G U72C U78C],0.14
17,UAACAGGGUGCCACAGCAGAAGCGUUCACGUCUCAGCCCCUGUCAGAUUCUGGAGGAUCUGCGAAUUCUGCCGUAUAUCUC [G9U G33U U54A A56G U72C],0.05

row,Variant,self-cleavage
1,UAACAGGGUGCCACAGCAGAAACGUUCACGUCGCAGCCCCUGUCAAAUUCUGGUGAGUCUGCGAAUUCUGCUGUAUAUCUC [G9U G22A G46A A57G],0.27
2,UAACAGGGUGCCACAGCAGAAGCGUUCACGUCGCAGCCCCUGUCGGAUUCUGGUGUAUCUGCGAAUUCUGCUGUAUGUCUC [G9U A45G A56U A77G],0.22
3,UAACAGGGUGCCACAGCAGAGGCGUUCACGCCGCAGCCCCUGUCAGGUUCUGGUGAGUCUGCGAAUUCUGCAGUAUAUCUC [G9U A21G U31C A47G A57G U72A],0.02
4,UAACAGGGUGCCACAGCAGAAGCGAUCACGUCGCAGCCCCUGUCAGAUUCUGGUGAAUCCGCGAAUUCGGCCGUAUAUCUC [G9U U25A U60C U69G U72C],0.15
5,UAACAGGGUGCCACAGCAGAAGCGUUCGCGUCGCAGCCCCUAUCAGAUUCUGGUGAGUCUGCGAAUUCAGCUGUAUAUCUC [G9U A28G G42A A57G U69A],0.1
6,UAACAGGGUGCCACAGCAGAGGCGUUCGCGUCGCAGCCCCUGUCAGAUUCUGGUGAGUCUGCGAAUUCUGCUGUAUAUCUC [G9U A21G A28G A57G],0.04
7,UAACAGGGUGCUACGGCAGAAGCGUUCACGUCGCGGCCCCUGUCAGAUUCUGGUGAAUCUGCGAAUUCUGCUGUAUAUCUC [G9U C12U A15G A35G],0.28
8,UAACAGGGUGCCACAGCAGAAGCGUUCACGUCGCAGCCCCUGUCAGAUUCUAGCGAAUCUGCGAAUUCUGCUGUAUAUCUC [G9U G52A U54C],0.06
9,UAACAGGGUGCCACAGCAAAAGCGUUCACGACGCAGCCCCUGUCAGAUUCUGGUGAAUCUGCGAAUUCCGCCGUAUAUCUC [G9U G19A U31A U69C U72C],0.12
10,UAACAGGGUGCCACAACAGAAGCGUUUACGUCGCAGCCCCUGUCAGAUUCUGGUGAAUCUGCGAAUUCUGCUGUAUAUCUC [G9U G16A C27U],0.05
11,UAACAGGGUGCCACAGCAGAAGCGUUCACGUCGCGGCCCCUGUCAGAUUCUGGUGAAUCUGCGAGAUCUGCUGUAUAUCUC [G9U A35G A65G U66A],0.15
12,UAACAGGGUGCCACAGCAGAAGCGUUCUCGUCGCAGCCCCUGUCUGAUUCUGGUGAAUCUGCGAAUUCUGCUGUAUAUCUC [G9U A28U A45U],0.12
13,UAACAGGGUGCCACAGCAGAGGCGUUCACGUCGCAGCCCCUGUCAGAUCCCGGCGAAUCUGCGAUUUCUGCUGUAUACCUC [G9U A21G U49C U51C U54C A65U U78C],0.07
14,UAACAGGGUGCCACAGCAGAAGCGUUCGCGUCGCAGCCCCUGUCAGAUUCUGGUGAAUCUGCGAAUCCUGCUGUAUAUCUC [G9U A28G U67C],0.12
15,UAACAGGGUGCCACAGCAGAGGCGUUCACGUCGCAGCCCCUGUCAGAUUCUGGUGAAUCUGCGAAUUCUACUGUAUAUCUC [G9U A21G G70A],0.2
16,UAACAGGGUACAACAGCAGUAGCGUUCACGUCGCAGCCCCUGUCAGAUUCUGGUGGAUCUGCGAAUUCUGCUGUAUAUCUC [G9U G10A C12A A20U A56G],0.04
17,UAACAGGGUGCCAUAGUAGAAGCGUUCGCGUCGCAGCCCCGGUCAGAUUCUGGUGAAUCUGCGAAUUCUGCUGUAUAUCUC [G9U C14U C17U A28G U41G],0.03
